The whole screen tested about 310,000 compounds, of which about 14,000 (4.5%) showed an effect of 50% or more. Effects have a minus sign here. This is one part of the list.
molecular target: human ether-à-go-go-related gene (hERG) potassium channel (human, UniProt Q12809); experiment: primary screen, population patch clamp on CHO cells stably expressing hERG
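Also: peak tail current of the secondary pulse compared with the same well before compound.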

Sequence of human ether-à-go-go-related gene (hERG) potassium channel (Q12809 whole entry, looked up): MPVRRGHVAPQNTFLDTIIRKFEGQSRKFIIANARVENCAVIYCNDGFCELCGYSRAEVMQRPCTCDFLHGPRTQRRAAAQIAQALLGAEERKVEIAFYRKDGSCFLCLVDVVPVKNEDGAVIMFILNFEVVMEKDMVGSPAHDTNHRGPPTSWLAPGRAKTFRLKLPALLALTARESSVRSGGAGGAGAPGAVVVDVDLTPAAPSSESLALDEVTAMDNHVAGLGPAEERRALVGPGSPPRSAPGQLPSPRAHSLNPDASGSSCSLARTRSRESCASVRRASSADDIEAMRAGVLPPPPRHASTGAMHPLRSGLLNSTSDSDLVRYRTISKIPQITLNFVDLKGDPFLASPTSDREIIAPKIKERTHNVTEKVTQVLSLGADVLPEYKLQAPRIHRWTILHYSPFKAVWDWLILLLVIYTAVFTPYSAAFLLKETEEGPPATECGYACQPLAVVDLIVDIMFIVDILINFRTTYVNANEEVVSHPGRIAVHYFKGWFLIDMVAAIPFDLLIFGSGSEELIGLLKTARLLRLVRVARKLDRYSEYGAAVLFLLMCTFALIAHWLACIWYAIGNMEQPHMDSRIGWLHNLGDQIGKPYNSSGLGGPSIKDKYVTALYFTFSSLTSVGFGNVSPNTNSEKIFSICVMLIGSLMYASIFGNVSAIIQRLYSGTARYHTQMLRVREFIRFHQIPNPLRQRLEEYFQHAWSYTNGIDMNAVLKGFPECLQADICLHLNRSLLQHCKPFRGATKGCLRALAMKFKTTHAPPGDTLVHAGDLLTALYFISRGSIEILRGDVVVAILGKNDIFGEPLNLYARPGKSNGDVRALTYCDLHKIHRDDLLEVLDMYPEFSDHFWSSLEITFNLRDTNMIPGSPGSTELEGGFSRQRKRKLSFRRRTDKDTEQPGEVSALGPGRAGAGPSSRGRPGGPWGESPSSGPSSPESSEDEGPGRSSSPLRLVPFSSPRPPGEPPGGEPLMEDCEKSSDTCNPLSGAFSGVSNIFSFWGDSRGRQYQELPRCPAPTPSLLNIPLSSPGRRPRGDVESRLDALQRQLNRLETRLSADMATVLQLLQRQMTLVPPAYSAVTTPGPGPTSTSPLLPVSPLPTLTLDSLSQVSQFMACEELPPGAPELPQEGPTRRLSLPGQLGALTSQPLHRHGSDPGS

Row | SMILES | hERG current change (%, negative = inhibition) at 10uM
1 | COCCCNC(=O)c1ccc2c(c1)OCO2 | -9.98%
2 | CCn1c(SCC(=O)N(C)C2CCS(=O)(=O)C2)nnc1-c1cccs1 (centres unmarked) | 15.2%
3 | CCOc1ncccc1C(=O)OCC(=O)NC(=O)NC(C)C | 39.9%
4 | Cc1ccc(N(Cc2ccccc2)C(=O)c2ccc(F)cc2)cc1 | -3.14%
5 | CCC(C)c1ccc(C(C)NC(=S)NC2CCCCC2)cc1 (centres unmarked) | 23.6%
6 | COc1ccc(Nc2nnc(-c3ccc(C(N)=O)cc3)c3ccccc23)cc1 | -33.9%
7 | CCC(C)(C(=O)NC1CCCCC1)N(Cc1cccs1)C(=O)c1ccc(=O)[nH]c1 (centres unmarked) | 1.83%
8 | O=C(/C=C/NNC(=O)c1cccc(Br)c1)c1ccccc1 | 5.7%
9 | CC1CCN(c2ccc(NC(=S)NC(=O)c3ccc(-c4cccc([N+](=O)[O-])c4)o3)cc2)CC1 | 2.99%
10 | CN(C)c1ccc(N=Nc2ccccc2C(=O)OCC(=O)N2CCCC2)cc1 | -1.01%
11 | CCO/C=C/C(=O)N(C)CCC#N | -0.874%
12 | COc1cc(C(=O)c2ccccc2)c([N+](=O)[O-])cc1OC | -2.35%
13 | Cc1cccc2cc3c(NC(=O)C(C)(C)C)nn(CC(C)C)c3nc12 | 10.8%
14 | CCC(=O)c1ccccc1OCCCN1C(=O)NC(C)(C)C1=O | 0.00578%
15 | Cc1onc(-c2ccccc2)c1C(=O)Nc1nnc(COc2ccc(Cl)cc2)s1 | 10.5%
16 | CCN(CC)c1ccc(N)cc1 | 13.4%
17 | CCOC(=O)C1CCN(C(=O)c2ccc(N(C)S(C)(=O)=O)cc2)CC1 | 1.51%
18 | CCOC(=O)c1[nH]c2ccc(C)cc2c1NC(=O)CN1CCCCC1 | -17.6%
19 | O=C(CSc1cccc(C(F)(F)F)c1)Nc1cc(S(=O)(=O)N2CCCC2)ccc1Cl | -5.28%
20 | COc1ccc(NC(=O)c2ccc(-n3c(C)ccc3C)cc2)c(OC)c1 | -24.3%
21 | COc1ccc(OC)c(S(=O)(=O)CC(=O)c2cc3ccc(OC)cc3oc2=O)c1 | 8.24%
22 | Cl.O=S(=O)(NCCN1CCOCC1)c1ccc(Cl)c(Cl)c1 | 0.4%
23 | COc1ccc2cc3cc(C(=O)Nc4ccc5c(c4)OCCO5)oc3nc2c1 | -2.07%

Row | SMILES | hERG current change (%, negative = inhibition) at 10uM
24 | CC1=NN(c2ccccc2)C(=O)C1c1ccccc1 (centres unmarked) | 4.26%
25 | CCNC(=O)CSc1nc(-c2ccc(F)cc2)cs1 | 21.2%
26 | Cc1ccc(C(=O)Nc2nc(-c3ccccn3)cs2)o1 | -40.4%
27 | O=C(COC(=O)CNC(=O)c1ccccc1F)NCCC1=CCCCC1 | 3.37%
28 | COc1ccc(C2SCC(C(=O)NCc3ccc(F)cc3)N2C(C)=O)cc1 (centres unmarked) | -20.2%
29 | COc1ccc(N2C(=O)C3C(C2=O)C3(c2ccccc2)c2ccccc2)cc1 (centres unmarked) | 0.0654%
30 | COc1cccc(C(=O)NC2CC(C)(C)Cc3c2cnn3-c2cccc(F)c2)c1OC (centres unmarked) | -52.3%
31 | CCOC(=O)C1CCN(C(=O)c2cc(S(=O)(=O)N3CCOCC3)ccc2C)CC1 | 1.3%
32 | O=S(=O)(c1cccs1)N1CN(Cc2ccc(F)cc2)c2nc3ccccc3nc21 | -5.12%
33 | Cc1nc(/N=C(\N)NC(=O)N2c3ccccc3Sc3ccccc32)nc2ccccc12 | 8.13%
34 | Cc1ccn(-c2ccc([N+](=O)[O-])cc2)n1 | 0.314%
35 | CC1(C)CC(=O)/C(=C(\O)CCCN2C(=O)c3ccccc3C2=O)C(=NCC(=O)O)C1 | 15.3%
36 | COc1cc([N+](=O)[O-])ccc1NC(=O)NCc1cccnc1 | -26.5%
37 | O=C(Nc1ccc2c(c1)CCCN2C(=O)c1cccs1)c1cccc(F)c1 | 10.3%
38 | O=C(Cn1cc(S(=O)(=O)Cc2cccc(F)c2)c2ccccc21)N1CCOCC1 | -7.62%
39 | O=C(COc1ccc2c(c1)OCO2)NC12CC3CC(CC(C3)C1)C2 | -15.5%
40 | CCOC(=O)Cn1cc(/C=C/[N+](=O)[O-])c2ccccc21 | -3.66%
41 | O=C(C1Cc2ccccc2O1)N1CCCCC1 (centres unmarked) | -8.57%
42 | CC(Sc1nnc(C(C)Oc2ccccc2F)o1)C(=O)NCc1ccc2c(c1)OCO2 (centres unmarked) | -41.5%
43 | O=C(c1cc(-c2ccc(O)cc2)on1)N1CCOCC1 | -6.82%
44 | CCCCNC(=O)CC1N=C2c3ccccc3N=C(SCC(=O)Nc3ccc(OC)cc3)N2C1=O (centres unmarked) | -13.1%
45 | COc1cccc(CN(C)C(=O)c2cc(S(=O)(=O)N3CCCCCC3)ccc2OC)c1 | -39%
46 | COc1ccc(Cl)cc1NC(=O)NCCCl | 10.5%

Row | SMILES | hERG current change (%, negative = inhibition) at 10uM
47 | COc1ccc2ccccc2c1C1CC(=O)N2CN(C)CSC2=C1C#N (centres unmarked) | 12.7%
48 | CCOc1ccc(NC(=S)N(CCN2CCOCC2)Cc2cc3cc4c(cc3[nH]c2=O)OCCO4)cc1 | -5.12%
49 | O=C1CC(c2ccc(Cl)cc2)n2nc(N3C(=O)c4ccccc4C3=O)nc2N1 (centres unmarked) | -3.13%
50 | COc1ccc(/C=N/Nc2cc(C)nc(-n3nc(C)cc3C)n2)cc1 | -4.01%
51 | COc1ccccc1CC(=O)NNC(=O)c1ccco1 | 16%
52 | CCC(=O)N1CC(=O)Nc2ccc(F)cc2C1c1ccc(F)cc1 (centres unmarked) | 5.29%
53 | CCOC(=O)c1c(NC(=O)C[n+]2ccccc2)sc2c1CCCC2.[Cl-] | 14.2%
54 | Cc1ccc2cc3c(nc2c1)N(Cc1ccco1)CC3 | -3.13%
55 | O=[N+]([O-])c1ccc(O)c(Nc2c([N+](=O)[O-])ccc3nonc23)c1 | 16%
56 | CCC(CC)NC(=O)Cc1ccccc1OC | 9.6%
57 | Cn1c(=O)c2c(nc(N3CCCC3)n2CC(O)CO)n(C)c1=O (centres unmarked) | 3.09%
58 | CCN(CC)CCOC(=O)c1cc(Cl)c(N)cc1OC.Cl | 2.49%
59 | COc1ccc(C(CC(=O)c2ccc(C)cc2)Nc2ccc([N+](=O)[O-])cc2)cc1 (centres unmarked) | 10.9%
60 | O=[N+]([O-])c1ccc(NC(=S)NCC(c2cccnc2)N2CCOCC2)cc1 (centres unmarked) | -49.9%
61 | O=C1C2C3C=CC(C4CC34)C2C(=O)N1/N=C/c1cccs1 (centres unmarked) | 12.5%
62 | Cc1n[nH]c(=S)n1/N=C/c1ccc(-c2ccccc2[N+](=O)[O-])o1 | 10.1%
63 | CC(C)CNS(=O)(=O)c1ccc(CCC(=O)N2CCOCC2)cc1 | -1.31%
64 | COc1cccc(COc2nc3c(c(=O)n(C)c(=O)n3C)n2C)c1 | 1.51%
65 | N#Cc1cc2c(=O)n3ccccc3nc2n(-c2ccccc2Cl)c1=O | 7.29%
66 | COC(=O)c1ccc(COc2ccc(/C=N/Nc3nc(C)cc(=O)[nH]3)cc2)cc1 | 3.55%
67 | O=C1NN(c2ccccc2)C(=O)C2C3C=CC(C4CC34)C12 (centres unmarked) | 14%
68 | c1ccc(-n2ncc3c(N4CCCCC4)ncnc32)cc1 | -15.4%
69 | CCOC(=O)CSc1nnc(CCc2nc3ccccc3[nH]2)n1C | -0.184%

Row | SMILES | hERG current change (%, negative = inhibition) at 10uM
70 | CCN(CC(=O)Nc1ccc2c(c1)OCCO2)C(=O)/C=C/c1ccc(OC)c(OC)c1 | -8.86%
71 | COC(=O)CN(c1nc(C)cc(OC)n1)S(=O)(=O)c1ccc(C)cc1 | -8.25%
72 | c1ccc(-c2nn3c(Cn4nnc5ccccc54)nnc3s2)cc1 | -4.36%
73 | COc1cc(C(N)=O)ccc1OCc1ccccc1 | -5.4%
74 | CC(C)NC(=O)c1ccc2c(c1)N(CC(=O)N1CCCCC1)C(=O)C(C)(C)O2 | 10.4%
75 | CN1CCN(S(=O)(=O)c2ccc(NC(=O)C(C)(C)C)cc2)CC1 | 6.75%
76 | COc1cccc(C(=O)NC2CCCc3c2cnn3-c2ccc(C)c(C)c2)c1OC (centres unmarked) | -12.4%
77 | O=C(Nc1ccc(N2CCOCC2)cc1)C1CC(O)CN1S(=O)(=O)c1ccc(Cl)cc1 (centres unmarked) | 22.5%
78 | CC1=C(C(=O)OCc2ccc3c(c2)OCO3)C(c2ccccc2OCc2ccccc2)NC(=O)N1 (centres unmarked) | 21.7%
79 | O=C(Nc1c[nH]c(=O)[nH]c1=O)c1ccc([N+](=O)[O-])cc1 | 10%
80 | CC(=O)Oc1ccc(-c2nc3cc(Cl)ccc3c(=O)o2)cc1 | 9.57%
81 | CCCCCNCc1cccc(Br)c1.Cl | -12%
82 | Cc1ccccc1OCC(=O)N/N=C/c1cc2ccccc2nc1Cl | -2.19%
83 | COc1ccc(C(CNC(=O)Cc2c(F)cccc2Cl)N2CCCCC2)cc1 (centres unmarked) | -26.3%
84 | Cc1cccc(NC(=O)/C(C#N)=C/c2ccc(Cl)cc2)n1 | 32.8%
85 | O=C([O-])Cn1c(COc2ccc(Cl)cc2)nc2ccccc21.[K+] | -1.19%
86 | Cc1cc(C)nc(-n2nc(C)cc2NC(=O)C(C)C)n1 | 16.9%
87 | CC(=O)c1ccc(-n2c(CCC(=O)O)ccc2-c2ccccc2)cc1 | 9.24%
88 | Cc1ccc(CN2CCN(CC(=O)N3CCC4(CC3)OCCO4)C2=O)cc1 | 3%
89 | O=C(COc1ccc(S(=O)(=O)NC2CCCCC2)cc1)N1CCN(c2cccc(Cl)c2)CC1 | -22.2%

Source: article PMC4336329 (PLoS ONE, 2015)
